# Measured values published in the supplement of paper PMC9135407.
# Where “and” joins values, the source holds several entries; their conditions need not be identical. Equal entries are not always repeated. Structures can show the parent of a compound that is named as a salt. Screen size: about 5,800 compounds; about 620 (11%) showed activity.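 Rule for the calls: active = score above a cut-off or among the top three wells of a plate; in these data no inactive exceeds 0.85.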 Only a part is listed here, and it is no random draw.
# System: primary human hepatic stellate cells (donor 1)
# Assay: scaled lipid accumulation score (0 = DMSO-like, 1 = nortriptyline-like); higher = stronger HSC inactivation (lipid re-accumulation), active = hit call of the paper
# Details: 48 h
# [1] = library stock concentration: 4.8 mM
# [2] = library stock concentration: 10 mM
# [3] = library stock concentration: 3.33 mM
# [4] = library stock concentration: 1 mM
# [5] = library stock concentration: 9.1 mM
smiles,measurement,setting,value
C=CCN1C[C@H](C(=O)N(CCCN(C)C)C(=O)NCC)C[C@@H]2c3cccc4[nH]cc(c34)C[C@H]21 [Cabergoline],scaled lipid accumulation score,library stock concentration: 4.4 mM,inactive: 0.368
Oc1ccc2c3c1O[C@H]1c4oc5ccccc5c4C[C@@]4(O)[C@@H](C2)N(CC2CC2)CC[C@]314 [Naltriben mesylate],scaled lipid accumulation score,[1],inactive: 0.403
NCc1cc(O)no1 [Muscimol],scaled lipid accumulation score,[2],inactive: 0.065
NCc1cc(O)no1 [Muscimol hydrobromide],scaled lipid accumulation score,[2],inactive: 0.274
NC(=O)CN1CCCC1=O [Piracetam],scaled lipid accumulation score,,inactive: ≤ 0
same,scaled lipid accumulation score,[3],inactive: ≤ 0
same,scaled lipid accumulation score,[2],inactive: ≤ 0 and inactive: 0.142
COc1cc2c(cc1OC)C(C)NCC2 (configuration not stated),scaled lipid accumulation score,,inactive: 0.537
O=c1[nH]c(=O)n(Cl)c(=O)n1Cl,scaled lipid accumulation score,[2],inactive: ≤ 0
O=C(Oc1ccc([N+](=O)[O-])cc1)N1CCC(C(O)(c2ccc3c(c2)OCO3)c2ccc3c(c2)OCO3)CC1,scaled lipid accumulation score,[3],inactive: ≤ 0
same,scaled lipid accumulation score,[2],inactive: ≤ -0.001
Cc1ccc(S(=O)(=O)N[C@@H](CCCCN)C(=O)CCl)cc1 [Tosyllysine Chloromethyl Ketone (hydrochloride)],scaled lipid accumulation score,[4],inactive: ≤ 0
Cc1ccc(S(=O)(=O)N[C@@H](CCCCN)C(=O)CCl)cc1 [Na-p-Tosyl-L-lysine chloromethyl ketone hydrochloride],scaled lipid accumulation score,[2],inactive: ≤ 0
CCCN1CCC[C@@H](c2cccc(O)c2)C1 [S(-)-3PPP hydrochloride],scaled lipid accumulation score,[2],inactive: ≤ 0
CN1C(=O)COc2c(C(=O)NC3CN4CCC3CC4)cc(Cl)cc21 (configuration not stated) [Azasetron],scaled lipid accumulation score,[2],inactive: ≤ 0
O=C1CN=C(c2ccccc2)c2cc([N+](=O)[O-])ccc2N1 [Nitrazepam],scaled lipid accumulation score,[2],inactive: ≤ 0
CC(=O)OCC1=C(C(=O)O)N2C(=O)[C@@H](NC(=O)CCC[C@@H](N)C(=O)O)[C@H]2SC1 [Cephalosporin c sodium],scaled lipid accumulation score,[2],inactive: ≤ 0
"CCCCC/C=C\C/C=C\C/C=C\C/C=C\CCCC(=O)N(C)C [Arachidonoyl-N,N-dimethyl amide]",scaled lipid accumulation score,[4],inactive: 0.01
COc1ccc2cc(C(C#N)OC(=O)OCC3OC3c3ccccc3)ccc2c1 (configuration not stated) [Epoxy Fluor 7],scaled lipid accumulation score,[4],inactive: 0.009
COc1cc2c(cc1OC)C1CC(=O)C(CC(C)C)CN1CC2 (configuration not stated) [Tetrabenazine],scaled lipid accumulation score,[2],inactive: ≤ 0 and inactive: ≤ -0.001
CCCCC/C=C\C/C=C\C/C=C\C/C=C\CCCC(=O)Nc1ccc(O)cc1,scaled lipid accumulation score,[4],inactive: ≤ 0
same,scaled lipid accumulation score,[2],inactive: ≤ 0 and inactive: 0.165
CCNC(=O)[C@H]1O[C@@H](n2cnc3c(N)ncnc32)[C@H](O)[C@@H]1O [5'-N-Ethylcarboxamidoadenosine],scaled lipid accumulation score,[2],inactive: 0.157
CCNC(=O)[C@H]1O[C@@H](n2cnc3c(N)ncnc32)[C@H](O)[C@@H]1O,scaled lipid accumulation score,[2],inactive: ≤ -0.006
O=C1CCC[C@@H]2[C@H]3CCCN4CCC[C@@H](CN12)[C@@H]34 [(+)-Matrine],scaled lipid accumulation score,[3],inactive: ≤ 0
same,scaled lipid accumulation score,[2],inactive: ≤ 0
Cc1cccc(C)c1NC1=NCCCS1 [Xylazine HCl],scaled lipid accumulation score,[3],inactive: ≤ 0
same,scaled lipid accumulation score,[5],inactive: ≤ -0.006
same,scaled lipid accumulation score,[2],inactive: ≤ 0
Cc1cccc(C)c1NC1=NCCCS1 [Xylazine hydrochloride],scaled lipid accumulation score,[2],inactive: 0.141
Cc1cccc(C)c1NC1=NCCCS1 [Xylazine],scaled lipid accumulation score,,inactive: 0.095
same,scaled lipid accumulation score,[5],inactive: ≤ 0
same,scaled lipid accumulation score,[2],inactive: 0.054
CC(=O)NC1CCSC1=O (racemic) [N-Acetyl-DL-homocysteine Thiolactone],scaled lipid accumulation score,,inactive: ≤ 0
CC(Cc1ccccc1)NCCC(c1ccccc1)c1ccccc1 (configuration not stated) [Prenylamine lactate],scaled lipid accumulation score,,inactive: ≤ 0
COc1ccc(C[C@@H]2NC[C@@H](O)[C@@H]2OC(C)=O)cc1 [Anisomycin],scaled lipid accumulation score,library stock concentration: 18.8 mM,active: 0.899
NCCc1c[nH]c2ccccc12 [Tryptamine],scaled lipid accumulation score,[2],inactive: 0.263
NCCc1c[nH]c2ccccc12 [Tryptamine hydrochloride],scaled lipid accumulation score,[2],inactive: 0.31
O=C(O[C@H]1C[N+]2(CCCOc3ccccc3)CCC1CC2)C(O)(c1cccs1)c1cccs1 [Aclidinium Bromide],scaled lipid accumulation score,[3],inactive: ≤ 0
same,scaled lipid accumulation score,[2],inactive: ≤ -0.001
CCCCC/C=C\C/C=C\C/C=C\C/C=C\CCCC(=O)NCCc1c[nH]c2ccc(O)cc12 [Arachidonoyl Serotonin],scaled lipid accumulation score,[4],inactive: 0.006
Clc1ccc(C(OCCN2CCCCC2)c2ccccc2)cc1 (configuration not stated) [Cloperastine hydrochloride],scaled lipid accumulation score,,inactive: 0.488
same,scaled lipid accumulation score,[2],inactive: 0.544
C[C@@H](CO)NC(=O)[C@@H]1C=C2c3cccc4[nH]cc(c34)C[C@H]2N(C)C1 [Ergonovine maleate],scaled lipid accumulation score,library stock concentration: 4.5 mM,inactive: ≤ -0.001
same,scaled lipid accumulation score,[2],inactive: ≤ 0
CN[C@@H]1C[C@H]2O[C@@](C)([C@@H]1OC)n1c3ccccc3c3c4c(c5c6ccccc6n2c5c31)C(=O)NC4 [staurosporine],scaled lipid accumulation score,library stock concentration: 10.7 mM,inactive: 0.643
CN1CC(CNC(=O)OCc2ccccc2)C[C@H]2c3cccc4c3c(cn4C)CC21 (some centres not stated) [Metergoline],scaled lipid accumulation score,[2],active: 1.05
CC[C@@H]1/C=C/C=C/C[C@H](C)[C@H](O)[C@](C)(O)C(=O)[C@H](C)[C@@H](O)[C@H](C)C(=O)[C@H](C)[C@@H](O)[C@H](C)/C=C/C(=O)O[C@H]2[C@@H](C)[C@@H](CC1)O[C@@]1(CC[C@@H](C)[C@@H](C[C@H](C)O)O1)[C@@H]2C [Oligomycin A],scaled lipid accumulation score,[3],inactive: ≤ 0
same,scaled lipid accumulation score,library stock concentration: 6.3 mM,inactive: 0.799
same,scaled lipid accumulation score,[2],inactive: ≤ 0
CC(C)(C)[C@]1(O)CC2OC(=O)CC23C(=O)OC2OC(=O)[C@H](O)C231 (some centres not stated) [Bilobalide],scaled lipid accumulation score,[3],inactive: ≤ 0
same,scaled lipid accumulation score,[2],inactive: ≤ 0
Cc1cc(SCc2sc(-c3ccc(C(F)(F)F)c(F)c3)nc2C)ccc1OCC(=O)O,scaled lipid accumulation score,[4],inactive: 0.038
same,scaled lipid accumulation score,[3],inactive: ≤ -0.009
same,scaled lipid accumulation score,[2],inactive: ≤ 0 and inactive: 0.045
NC(=O)C[S+]([O-])C(c1ccccc1)c1ccccc1 (configuration not stated) [Modafinil],scaled lipid accumulation score,library stock concentration: 7.3 mM,inactive: ≤ 0
same,scaled lipid accumulation score,[2],inactive: ≤ 0 and inactive: 0.03
"Ic1ccccc1CNC1C2CCN(CC2)C1C(c1ccccc1)c1ccccc1 [L-703,606 oxalate salt hydrate]",scaled lipid accumulation score,[2],inactive: 0.063
CC1(C)C(C=C(Cl)Cl)C1C(=O)OCc1cccc(Oc2ccccc2)c1 (configuration not stated),scaled lipid accumulation score,[2],inactive: ≤ 0
COc1ccc2c(c1)[nH]c1c(C)nccc12 [Harmine],scaled lipid accumulation score,[4],inactive: 0.141
same,scaled lipid accumulation score,[2],inactive: 0.762
O=C1c2ccccc2C(=O)c2ccccc21 [Anthraquinone],scaled lipid accumulation score,[2],inactive: ≤ 0
CCCN(CCC)CCc1ccc(O)c(O)c1 [Dipropyldopamine hydrobromide],scaled lipid accumulation score,[2],inactive: ≤ -0.07
COc1ccc(C[C@H]2NC[C@H](O)[C@H]2OC(C)=O)cc1 [Anisomycin],scaled lipid accumulation score,[2],inactive: 0.806
COc1ccc2c(c1)/C(=C/c1cnc[nH]1)C(=O)N2,scaled lipid accumulation score,[3],inactive: ≤ 0
Cc1[nH]c2ccc(Cl)cc2c1C1=CCNCC1.Cl,scaled lipid accumulation score,[2],active: 1.1
C/C=C(\C)C(=O)N[C@@H](c1ccccc1)[C@@H](O)C(=O)O[C@H]1C[C@@]2(O)[C@@H](OC(=O)c3ccccc3)[C@@H]3[C@]4(OC(C)=O)CO[C@@H]4C[C@H](O)[C@@]3(C)C(=O)[C@H](OC(C)=O)C(=C1C)C2(C)C [Cephalomannine],scaled lipid accumulation score,[3],inactive: ≤ 0
same,scaled lipid accumulation score,[2],inactive: ≤ 0
C=C1[C@@H](O)[C@@H]2O[C@]3(CC[C@H](/C=C/[C@@H](C)[C@@H]4CC(C)=C[C@@]5(O[C@H](C[C@@](C)(O)C(=O)O)CC[C@H]5O)O4)O3)CC[C@H]2O[C@@H]1[C@@H](O)C[C@H](C)[C@H]1O[C@@]2(CCCCO2)CC[C@H]1C [Okadaic acid],scaled lipid accumulation score,library stock concentration: 600 uM,inactive: 0.393
CCC(COC(=O)c1cc(OC)c(OC)c(OC)c1)(c1ccccc1)N(C)C (configuration not stated) [Trimebutine],scaled lipid accumulation score,[3],inactive: ≤ 0
same,scaled lipid accumulation score,[2],inactive: ≤ 0
NCCc1c[nH]c2ccc(O)cc12 [Serotonin hydrochloride],scaled lipid accumulation score,,inactive: ≤ 0
same,scaled lipid accumulation score,[2],inactive: ≤ -0.07
NCCc1c[nH]c2ccc(O)cc12 [Serotonin],scaled lipid accumulation score,[2],inactive: ≤ -0.001
NCCc1c[nH]c2ccc(O)cc12 [Serotonin HCl],scaled lipid accumulation score,[3],inactive: ≤ 0
same,scaled lipid accumulation score,[2],inactive: ≤ -0.001
"CNC(C)[C@H](O)c1ccccc1 (some centres not stated) [Ephedrine (1r,2s) hydrochloride]",scaled lipid accumulation score,[2],inactive: ≤ 0
CCN(C(C)=O)c1cccc(-c2ccnc3c(C#N)cnn23)c1 [Zaleplon],scaled lipid accumulation score,[2],inactive: ≤ 0
CO[C@H](C/C=C\C=C\CC/C=C/C[C@H](C)/C=C/C(=C\C(=O)O)CC(=O)O)/C(C)=C\C=C(/C)C(=O)O [Bongkrekic acid],scaled lipid accumulation score,[4],inactive: ≤ -0.014
CN(C)NC(=O)CCC(=O)O [Daminozide],scaled lipid accumulation score,library stock concentration: 80 uM,inactive: ≤ 0
same,scaled lipid accumulation score,library stock concentration: 400 uM,inactive: ≤ 0
same,scaled lipid accumulation score,library stock concentration: 2 mM,inactive: ≤ 0
same,scaled lipid accumulation score,[2],inactive: ≤ 0
O=[N+]([O-])c1ccc([As](=O)(O)O)cc1,scaled lipid accumulation score,[2],inactive: 0.03
COc1cc([C@@H]2c3cc4c(cc3[C@H](O)[C@H]3COC(=O)[C@H]23)OCO4)cc(OC)c1OC [Podophyllotoxin],scaled lipid accumulation score,,inactive: ≤ 0
same,scaled lipid accumulation score,[2],inactive: 0.288
COc1cc([C@@H]2c3cc4c(cc3[C@H](O)[C@H]3COC(=O)[C@H]23)OCO4)cc(OC)c1OC [Podofilox],scaled lipid accumulation score,[1],inactive: 0.201
same,scaled lipid accumulation score,[2],inactive: 0.419
C=C(C)[C@@H]1CCC(C)=C[C@H]1C1=C(O)C(=O)C(CCCCC)=CC1=O,scaled lipid accumulation score,[4],inactive: 0.055
CC(C)(C)NCC(O)COc1cccc2[nH]c(C#N)cc12 (configuration not stated) [Cyanopindolol hemifumarate],scaled lipid accumulation score,[2],inactive: 0.049
CNC(C)C(O)c1ccccc1 (configuration not stated) [Racephedrine hydrochloride],scaled lipid accumulation score,library stock concentration: 9.9 mM,inactive: ≤ 0
same,scaled lipid accumulation score,[2],inactive: ≤ 0
